Blank lines part the entries; values can stand above or below the binder they belong to.
Columns and labels:
[1] = molecular target: T1, PSMGFR peptide (Primary Sequence of the MUC1 Growth Factor Receptor); experiment: ELISA on PSMGFR (FIG. 21A, B)
T1 construct: Synthetic peptide; also called MUC1* peptide; MUC1* PSMGFR peptide
T1 peptide: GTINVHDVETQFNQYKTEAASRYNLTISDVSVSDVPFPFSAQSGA

[2] = molecular target: T1, PSMGFR peptide (Primary Sequence of the …); experiment: ELISA on PSMGFR (FIG. 21B)
[3] = molecular target: T1, PSMGFR peptide (Primary Sequence of the …); experiment: ELISA on PSMGFR (FIG. 21A)
[4] = molecular target: T1, PSMGFR peptide (Primary Sequence of the …); experiment: ELISA on immobilised peptide (FIG. 20)
[5] = molecular target: T2, PSMGFR minus 10 amino acids from the N-terminus; experiment: ELISA on immobilised peptide (FIG. 20)
T2 construct: also called N-10; N-10 PSMGFR
T2 peptide: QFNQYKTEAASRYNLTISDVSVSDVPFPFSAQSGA

[6] = molecular target: T3, PSMGFR minus 10 amino acids from the C-terminus; experiment: ELISA on immobilised C-10 peptide (FIG. 20)
T3 construct: also called C-10; C-10 PSMGFR
T3 peptide: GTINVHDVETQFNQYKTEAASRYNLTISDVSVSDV

B2: humanized MN-C3 scFv-Fc (Fc fusion)
chain: DAAQPAQVQLVQSGAEVKKPGASVKVSCKASGYTFTDYAMNWVRQAPGQGLEWMGVISTFSGNTNFNQKFKGRVTMTTDTSTSTAYMELRSLRSDDTAVYYCARSDYYGPYFDYWGQGTTLTVSSGGGGSGGGGSGGGGSDIVMTQTPLSLSVTPGQPASISCRSSQTIVHSNGNTYLEWYLQKPGQSPQLLIYKVSNRFSGVPDRFSGSGSGTDFTLKISRVEAEDVGVYYCFQGSHVPFTFGGGTKVEIKRT[human IgG1 Fc not written out]
notes: also called hu MN-C3 scFv-Fc; MN-C3 scFv-Fc fusion protein
- binding result [2]: binds

B3: hu MN-E6 scFv-Fc-Y407R (Fc fusion)
chain: EVQLVESGGGLVKPGGSLRLSCAASGFTFSRYGMSWVRQAPGKRLEWVSTISGGGTYIYYPDSVKGRFTISRDNAKNTLYLQMNSLRAEDTAVYYCTRDNYGRNYDYGMDYWGQGTLVTVSSGGGGSGGGGSGGGGSEIVLTQSPATLSLSPGERATLTCSATSSVSYIHWYQQRPGQSPRLLIYSTSNLASGIPARFSGSGSGSDYTLTISSLEPEDFAVYYCQQRSSSPFTFGSGTKVEIK[human IgG1 Fc with Y407R (EU numbers) not written out]
notes: It therefore also carries that construct's leader and the vector residues AAQPA before the scFv; The mutation favours monomer over dimer; also called humanized E6 scFV-Fc Y407R
- binding result [3]: binds

The next lines start with the values.

- binding result [1]: binds
B1: hu MN-E6 scFv-Fc-hingeless (Fc fusion)
chain: EVQLVESGGGLVKPGGSLRLSCAASGFTFSRYGMSWVRQAPGKRLEWVSTISGGGTYIYYPDSVKGRFTISRDNAKNTLYLQMNSLRAEDTAVYYCTRDNYGRNYDYGMDYWGQGTLVTVSSGGGGSGGGGSGGGGSEIVLTQSPATLSLSPGERATLTCSATSSVSYIHWYQQRPGQSPRLLIYSTSNLASGIPARFSGSGSGSDYTLTISSLEPEDFAVYYCQQRSSSPFTFGSGTKVEIK[human IgG1 Fc not written out]
notes: It therefore also carries that construct's leader and the vector residues AAQPA before the scFv; also called humanized MN-E6 scFv-Fc-delta hinge; Dhinge

- binding result [4]: binds
- binding result [5]: binds
- binding result [6]: no binding
B4: humanized MN-E6 scFv-Fc (wild type Fc) (Fc fusion)
chain: DAAQPAEVQLVESGGGLVKPGGSLRLSCAASGFTFSRYGMSWVRQAPGKRLEWVSTISGGGTYIYYPDSVKGRFTISRDNAKNTLYLQMNSLRAEDTAVYYCTRDNYGRNYDYGMDYWGQGTLVTVSSGGGGSGGGGSGGGGSEIVLTQSPATLSLSPGERATLTCSATSSVSYIHWYQQRPGQSPRLLIYSTSNLASGIPARFSGSGSGSDYTLTISSLEPEDFAVYYCQQRSSSPFTFGSGTKVEIK[human IgG1 Fc not written out]
notes: It was biotinylated for some tissue stainings; also called hu MN-E6 scFv-Fc; hu MN-E6 scFv-Fc-wt

Source: patent US20230183373A1 (MINERVA BIOTECHNOLOGIES, published 2023)
